Data: PubChem BioAssay AID1963576 (National Center for Advancing Translational Sciences (NCATS), 2024)
Out of some 46,000 compounds screened, about 60 (0.1%) were called active. Another 3% or so got no clear call; they are omitted. Calls follow the shape of the dose curve; as a rule, active = well fitted inhibition curve with a large enough effect; inconclusive = small, poorly fitted or top-dose-only effect; inactive = no such curve, though single readings can be large or run the other way. The list shows a part of the results.

Assay: Primary qHTS assay for Inhibitors of ovarian cancer metastasis using an organotypic tumor microenvironment (TME) model. Also: nearly all actives have a fitted effect of over 65% in size.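 As to activity change, negative = inhibition: plate controls were DMSO wells for no effect and tomatine positive control wells for full effect.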
Conditions: SKOV3ip1-GFP adhesion/invasion on 3D omental model, fluorescence; series mostly up to 45.8 µM; activity change, negative = inhibition: at the top concentration
Outline: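 Adhesion/invasion was scored as fixed GFP-labeled SKOV3ip1 cell counts (488/509 nm), normalized to DMSO and tomatine controls. Cancer cells in serum-free medium, with four compound doses (0.36-46 umol/L), sat 2 hr at RT then 16 hr at 37 C on a 48 hr fibroblast/mesothelial/ECM culture.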

| Structure (SMILES) | activity change, negative = inhibition | outcome |
| --- | --- | --- |
| CCC(=O)N1c2ccc(S(=O)(=O)NCCc3ccccc3)cc2CC1C (configuration not stated) | inactive: -23.7% | – |
| O=C(NCCc1csc(-c2ccc(F)cc2)n1)C(=O)Nc1ccc(Cl)cc1 | – | inactive |
| COc1ccc(OC)c(NC(=O)c2nc(SCc3ccc(F)cc3)ncc2Cl)c1 | inactive: -5.19% | – |
| Cc1ccc(CNS(=O)(=O)c2c(C(=O)N3CCC(C)CC3)c(C)n(C)c2C)cc1 | inactive: -2.61% | – |
| COc1ccc(C)cc1NC(=O)C1CCN(S(=O)(=O)c2cccc3nonc23)CC1 | – | inactive |
| CCOC(=O)c1[nH]c(C)c(CCC(=O)NCc2ccc(OC(C)C)cc2)c1C | inactive: -2.31% | – |
| COC(=O)c1ccccc1NC(=O)N(Cc1ccc(C)cc1)Cc1cccn1-c1nnc(N2CCCC2=O)s1 | inactive: -17.6% | – |
| CCc1ccc(S(=O)(=O)c2cn(CC(=O)Nc3cccc(C)c3)c3ccc(Cl)cc3c2=O)cc1 | inactive: 6.98% | – |
| Cc1cccc(NC(=O)CSc2nnc3c4ccccc4n(C)c3n2)c1 | inactive: -15.5% | – |
| Cc1sc2ncn(CC(=O)Nc3ccc(C(F)(F)F)cc3)c(=O)c2c1S(=O)(=O)N1CCN(C)CC1 | inactive: -6.9% | – |
| Cc1cc(Nc2cccc(O)c2)c2cccc(Br)c2n1 | inactive: 6.53% | – |
| COc1ccccc1NC(=O)Cn1c(=O)n(Cc2nc(-c3ccccc3)no2)c(=O)c2ccccc21 | – | inactive |
| COc1ccccc1[C@H](c1cccc2ccccc12)[C@@](C)(C#N)C(=O)N1CCC(c2cccc(C(F)(F)F)c2)CC1 | inactive: -1.15% | – |
| CC(C)NC(=O)C1CCN(C(=O)N2CC(C)Oc3ccccc32)CC1 (configuration not stated) | – | inactive |
| CCOc1ccc2nc(N3CCCC(C(=O)NCc4ccc(C)cc4)C3)sc2c1 (configuration not stated) | inactive: 6.07% | – |
| Cc1ccc(C)c(NC(=O)Nc2csc3c2CCCC3)c1 | inactive: 5.74% | – |
| O=C(COCc1cc(-c2cccs2)on1)Nc1cccc(O)c1 | inactive: 0.101% | – |
| COc1ccc(NC(=O)Cn2cc(C(=O)c3cccs3)c3ccccc32)cc1 | inactive: 0.0792% | – |
| CCS(=O)(=O)NCCc1csc2nc(-c3ccc(C)cc3)nn12 | – | inactive |
| CCC1=C(c2ccc(C)cc2)S(=O)(=O)N=C1N1CCC(C(=O)N2CCCCC2)CC1 | inactive: 0.796% | – |
| COC(=O)c1c(C)sc(-c2c(-c3ccc4c(c3)OCCO4)[nH]c3c2c(=O)[nH]c(=O)n3C)c1O | inactive: -27.3% | – |
| Cc1ccc(-n2cnc3cc(C(=O)NC4CCCCCC4)ccc32)cc1Cl | inactive: -20.1% | – |
| Cc1cccc(-n2c(-c3ccco3)nc3c(cnn3-c3ccc(F)cc3)c2=O)c1 | – | inactive |
| COc1ccc(NC(=O)C2CCN(S(=O)(=O)c3c(C)noc3/C=C/c3ccc(C)cc3)CC2)cc1Cl | inactive: -9.04% | – |

| Structure (SMILES) | activity change, negative = inhibition | outcome |
| --- | --- | --- |
| Cc1c(CNCCCc2ccccc2)c(C(=O)O)c(C)n1Cc1cccc(Cl)c1 | inactive: -0.252% | – |
| CC1CCc2c(sc(NC(=O)c3cc(-c4ccc(Br)cc4)on3)c2C(N)=O)C1 (configuration not stated) | – | inactive |
| COc1ccc(-c2nn(C)c3sc(C(=O)N4CCN(c5cccc(Cl)c5)CC4)cc23)cc1OC | inactive: 0.0809% | – |
| O=C(O)CO.[NH2-].[NH2-].[Pt+2] | inactive: -5.19% | – |
| O=C(COc1ccccc1)Nc1c(Cl)ccc2nsnc12 | – | inactive |
| COC(=O)CC1Oc2ccc(Cl)cc2-n2cc(-c3ccc(F)cc3)nc21 (configuration not stated) | – | inactive |
| CC(=O)N1CCc2cc(S(=O)(=O)N3CCN(c4ccc(C)cc4)C(C)C3)ccc21 (configuration not stated) | – | inactive |
| CCc1ccc(OCC(=O)Nc2ccc(Cl)c(-c3nc4ncccc4o3)c2)cc1 | inactive: 0.796% | – |
| Cc1ccc(OCc2cc(=O)n3cc(C)sc3n2)c(C)c1 | – | inactive |
| COc1ccc(S(=O)(=O)c2cn(C)c3cc(N4CCOCC4)c(F)cc3c2=O)cc1 | inactive: -8.39% | – |
| Cc1ccc(NS(=O)(=O)c2ccc3[nH]c4c(c3c2)CCCCC4)cc1 | inactive: -15.9% | – |
| CC(C)(C)NC(=O)CCSc1nc(-c2ccc3c(c2)OCO3)cc(C(F)(F)F)n1 | inactive: 29.8% | – |
| CCN1CCN(C(=O)c2c(C)nn(-c3ccc(F)cc3)c2-n2cccc2)CC1 | inactive: -21.1% | – |
| CCCCCCCCCCCC(CC1OC(=O)C1CCCCCC)OC(=O)C(CC(C)C)NC=O (configuration not stated) | inactive: 0.698% | – |
| CCCCOc1ccc(C(=O)NCCc2csc(-c3ccc(OC)cc3)n2)cc1 | – | inactive |
| Cc1ccc(C)c(NC(=O)CSc2nc(-c3ccccc3Cl)nc3c2Cc2c(CO)cnc(C)c2O3)c1 | inactive: 6.83% | – |
| CCOC(=O)c1cnc2nc(NCc3ccc(OCC)cc3)[nH]n2c1=O | inactive: 7.21% | – |
| CN(C)c1ccc(CNC(=O)c2cccn2-c2nnc(N3CCCCC3)s2)cc1 | inactive: 42.6% | – |
| Cc1cc(-c2nc3ncccc3o2)ccc1NC(=O)COc1cc(C)c(Cl)c(C)c1 | inactive: -22.8% | – |
| CCN(Cc1ccccc1)S(=O)(=O)c1ccc2[nH]c3c(c2c1)CCCCC3 | – | inactive |
| CN(Cc1ccccc1)c1ccc(-c2nc(-c3cccnc3)no2)cc1[N+](=O)[O-] | – | inactive |
| CCOC(=O)c1cccc(NC(=O)c2nn(-c3ccc(OC)cc3)c(=O)c3c2c2ccccc2n3C)c1 | inactive: -6.55% | – |
| Cc1c(C(=O)OCCOc2ccccc2)[nH]c2c1C(=O)CC(c1ccccc1Cl)C2 (configuration not stated) | – | inactive |
